# Laboratory results taken from PubChem BioAssay (Tox21).
# Where “and” joins values, the source holds several entries; their conditions need not be identical. Identical values can stand only once. The shares of active, inactive and inconclusive entries below differ from those in the screen. The call rests on the fitted dose curve; in most records, active means well fitted curve in the direction sought with a large enough effect in the repeat runs; inconclusive means weak or mixed curves; inactive means no such curve, though single readings can be large; an effect the other way counts as inactive or inconclusive. Potencies of inconclusive entries are doubtful fits and often do not repeat. A structure can be active in one record and inactive in another.
# Assays:
# [1] = Caspase-3/7 induction in HepG2 cells by small molecules, qHTS cell viability counter screen (AID 1346981); further: nearly all actives have a fitted effect of over 30% in size
# Method in brief: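 Fluorescence read-out of live-cell protease activity (CellTiter-Fluor) after 1 hr with reagent. This was measured in the same wells as the caspase-3/7 luminescence, on HepG2 cells exposed to DMSO-dissolved compounds for 16 hr at 37 C.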
# [2] = biological target: Cytochrome P450 2D6 (Homo sapiens) (UniProt P10635); assay: Cytochrome P450 Family 2 Subfamily D Member 6 (CYP2D6) small molecule antagonists: luciferase reporter qHTS assay (AID 1671196); further: nearly all actives have a fitted effect of over 50% in size
# Sequence of UniProt P10635 (P10635 whole entry, looked up): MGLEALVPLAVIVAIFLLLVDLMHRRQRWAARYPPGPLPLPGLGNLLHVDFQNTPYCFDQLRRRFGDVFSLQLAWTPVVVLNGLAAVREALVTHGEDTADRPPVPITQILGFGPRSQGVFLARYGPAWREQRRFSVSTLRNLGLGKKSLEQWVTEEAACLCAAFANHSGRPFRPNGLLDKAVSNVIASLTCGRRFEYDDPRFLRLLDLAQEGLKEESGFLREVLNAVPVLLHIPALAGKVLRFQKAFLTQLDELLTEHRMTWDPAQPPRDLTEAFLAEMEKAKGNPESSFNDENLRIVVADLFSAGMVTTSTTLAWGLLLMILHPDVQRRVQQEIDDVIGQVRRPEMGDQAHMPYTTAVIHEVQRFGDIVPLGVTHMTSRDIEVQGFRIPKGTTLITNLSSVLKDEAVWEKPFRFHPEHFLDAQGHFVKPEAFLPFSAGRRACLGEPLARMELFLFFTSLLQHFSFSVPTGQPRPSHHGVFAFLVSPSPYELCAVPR
# Method in brief: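 Luminogenic proluciferin substrate, CYP2D6 enzyme; 10 min RT preincubation with compound, NADPH regeneration system added, 1 h RT. Stop/detection reagent, 20 min RT, luminescence read (RLU). Signal proportional to CYP activity.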
# [3] = biological target: Cytochrome P450 2C19 (Homo sapiens) (UniProt P33261); assay: Cytochrome P450 Family 2 Subfamily C Member 19 (CYP2C19) small molecule antagonists: luciferase reporter qHTS assay (AID 1671197); further: nearly all actives have a fitted effect of over 65% in size
# Sequence of UniProt P33261 (P33261 whole entry, looked up): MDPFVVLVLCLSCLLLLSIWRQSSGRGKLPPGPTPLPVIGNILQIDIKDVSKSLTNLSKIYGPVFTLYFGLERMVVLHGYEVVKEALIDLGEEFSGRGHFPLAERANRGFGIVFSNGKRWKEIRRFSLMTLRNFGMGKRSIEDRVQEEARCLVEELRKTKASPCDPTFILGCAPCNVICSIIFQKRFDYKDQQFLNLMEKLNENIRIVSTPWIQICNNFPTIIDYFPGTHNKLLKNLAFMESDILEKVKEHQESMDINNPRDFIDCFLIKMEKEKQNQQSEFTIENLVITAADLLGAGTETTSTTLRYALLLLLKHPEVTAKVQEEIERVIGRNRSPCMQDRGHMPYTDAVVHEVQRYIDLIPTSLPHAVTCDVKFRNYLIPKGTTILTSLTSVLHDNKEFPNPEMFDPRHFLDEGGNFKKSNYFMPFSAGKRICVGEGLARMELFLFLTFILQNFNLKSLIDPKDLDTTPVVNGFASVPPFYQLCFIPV
# Method in brief: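 Luminescent readout of CYP2C19 activity: luciferin product detected 20 min after adding detection reagent. Before that, compound and enzyme-substrate mix preincubated 10 min at room temperature; NADPH-regenerating system started a 1 h, 37C reaction. Ketoconazole as positive control.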
# [4] = biological target: Nuclear receptor subfamily 1 group I member 2 (Homo sapiens) (UniProt O75469); assay: Human pregnane X receptor (PXR) small molecule agonists, qHTS assay (AID 1346982); further: nearly all actives have a fitted effect of over 35% in size
# Sequence of UniProt O75469 (O75469 whole entry, looked up): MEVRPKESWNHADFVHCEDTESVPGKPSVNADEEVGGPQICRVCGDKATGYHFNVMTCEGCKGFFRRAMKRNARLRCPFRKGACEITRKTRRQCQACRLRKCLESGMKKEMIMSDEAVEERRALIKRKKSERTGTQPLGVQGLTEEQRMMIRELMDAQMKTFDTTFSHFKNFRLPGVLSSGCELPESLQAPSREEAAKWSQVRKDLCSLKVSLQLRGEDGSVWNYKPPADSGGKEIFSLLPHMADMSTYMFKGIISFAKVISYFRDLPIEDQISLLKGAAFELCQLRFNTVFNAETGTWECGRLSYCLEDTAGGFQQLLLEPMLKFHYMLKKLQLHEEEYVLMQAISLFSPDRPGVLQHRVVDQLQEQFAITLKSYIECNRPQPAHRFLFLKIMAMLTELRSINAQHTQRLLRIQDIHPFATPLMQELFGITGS
# Method in brief: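 HepG2 PXR-Luc reporter line, 5% charcoal-stripped FBS; 5 hr pre-incubation, compound (DMSO) 24 hr at 37 C/5% CO2; ONE-Glo 30 min RT; luminescence read-out.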
# [5] = biological target: Nuclear receptor subfamily 1 group I member 2 (Rattus norvegicus) (UniProt Q9R1A7); assay: Rat pregnane X receptor (rPXR) activation by small molecules, qHTS assay (AID 1346983); conditions: rPXR luciferase reporter cells, One-Glo luminescence, 24 h; max activation: hits give high values; further: nearly all actives have a fitted effect of over 20% in size
# Sequence of UniProt Q9R1A7 (Q9R1A7 whole entry, looked up): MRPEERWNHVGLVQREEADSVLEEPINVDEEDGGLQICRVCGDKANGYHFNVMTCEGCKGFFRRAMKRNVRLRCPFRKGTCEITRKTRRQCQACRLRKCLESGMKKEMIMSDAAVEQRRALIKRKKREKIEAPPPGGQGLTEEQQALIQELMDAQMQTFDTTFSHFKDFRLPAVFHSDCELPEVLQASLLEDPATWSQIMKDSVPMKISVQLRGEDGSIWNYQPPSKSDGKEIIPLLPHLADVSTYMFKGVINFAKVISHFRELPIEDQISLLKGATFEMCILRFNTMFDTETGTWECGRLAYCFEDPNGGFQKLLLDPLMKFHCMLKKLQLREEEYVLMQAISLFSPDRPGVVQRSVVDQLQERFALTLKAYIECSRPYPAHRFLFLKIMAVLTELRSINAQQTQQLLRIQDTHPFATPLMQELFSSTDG
# Method in brief: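 Cell-based rPXR activation assay: rPXR cells, 2,000 per well, rested 5hr at 37 C, then exposed to compounds in DMSO for 24 hr at 37 C. Luciferase activity read by One-Glo luminescence after 30 min at room temperature.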
# Potency means the concentration at half of the fitted maximal effect; tags describe the fitted curve by direction and shape.
SMILES,Potency [1],Potency [2],Potency [3],Potency [4],Potency [5]
CCCCCCCCCCCCOC(=O)c1cc(O)c(O)c(O)c1,"inconclusive: 34.4 µM [cytotoxic, partial curve]",–,–,–,–
CC(=O)O[C@]1(C(C)=O)CC[C@H]2[C@@H]3C=C(Cl)C4=CC(=O)[C@@H]5C[C@@H]5[C@]4(C)[C@H]3CC[C@@]21C,"inconclusive: 68.5 µM [cytotoxic, single point] and inconclusive: 68.6 µM [cytotoxic, single point]","inconclusive: 50.2 µM [inhibitor, partial curve, poor fit] and inconclusive: 38.9 µM [inhibitor, single point]","inconclusive: 43.6 µM [inhibitor, single point]",–,–
CC(=O)O[C@]1(C(C)=O)CC[C@H]2[C@@H]3C[C@H](C)C4=CC(=O)CC[C@]4(C)[C@H]3CC[C@@]21C,"inconclusive: 0.243 µM [cytotoxic, single point]",–,"inconclusive: 11 µM [inhibitor, full curve, poor fit]","inconclusive: 4.73 µM [activator, partial curve]","inconclusive: 1.26 µM [activator, full curve, poor fit]"
O=C(Cl)c1c(Cl)c(Cl)c(C(=O)Cl)c(Cl)c1Cl,"inconclusive: 21.7 µM [cytotoxic, single point]","inconclusive: 28.2 µM [inhibitor, full curve]","inconclusive: 79.5 µM [inhibitor, partial curve]",–,–
